The values below come from a collection of fitness landscapes (doi:10.1126/science.1257360).

Sequences and labels used below:
B1: PhoQ; a variant is named by its letters at X, in order, P23837 (parent)
chain: MKKLLRLFFPLSLRVRFLLATAAVVLVLSLAYGMVALIGYSVSFDKTTFRLLRGESNLFYTLAKWENNKLHVELPENIDKQSPTMTLIYDENGQLLWAQRDVPWLMKMIQPDWLKSNGFHEIEADVNDTSLLLSGDHSIQQQLQEVREDDDDAEMTHSVAVNVYPATSRMPKLTIVVVDTIPVELKSSYMVWSWFIYVLSANLLLVIPLLWVAAWWSLRPIEALAKEVRELEEHNRELLNPATTRELTSLVRNLNRLLKSERERYDKYRTTLTDLTHSLKTPLXXLQXXLRSLRSEKMSVSDAEPVMLEQISRISQQIGYYLHRASMRGGTLLSRELHPVAPLLDNLTSALNKVYQRKGVNISLDISPEISFVGEQNDFVEVMGNVLDNACKYCLEFVEISARQTDEHLYIVVEDDGPGIPLSKREVIFDRGQRVDTLRPGQGVGLAVAREITEQYEGKIVAGESMLGGARMEVIFGRQHSAPKDE

Some of the results follow.

In the test the parent is B1. The experiment in a line: enrichment ratio after two sorts for PhoP signalling (ratio (wild type AVST 3.29)); higher = more functional. As to conditions: with PhoP (E. coli).
AMWM: the enrichment ratio is no more than 0.25. With GIYY, the enrichment ratio is no more than 0.25. Next, SLYC: no more than 0.25.

Turning to FCFI, the enrichment ratio is no more than 0.25. Regarding FTMY, the enrichment ratio came to 4.04. Next, IEST: no more than 0.25; LVLY: no more than 0.25. Turning to NHGG, the enrichment ratio is no more than 0.25. The figure for RQWC is no more than 0.25; for WQQF it is no more than 0.25; for VSNV it is no more than 0.25.

For the variant YMIF, the enrichment ratio is no more than 0.25.

Consider TGKD, for which the enrichment ratio was no more than 0.25. Next, PVVD: no more than 0.25; GYYS: no more than 0.25; SEMH: 19.3. Turning to AQFP, the enrichment ratio was no more than 0.25. Consider WNKN, for which the enrichment ratio is no more than 0.25. The figure for LQPV is no more than 0.25; for NNGM it is no more than 0.25. The figure for LIQR is no more than 0.25; for KVKS it is no more than 0.25. Next, SANL: no more than 0.25. On to TMFN, for which the enrichment ratio is no more than 0.25. The figure for MWGS is no more than 0.25. The figure for RCMG is no more than 0.25; for RVGF it is no more than 0.25; for RIIC it is no more than 0.25. Next, KAVV: no more than 0.25. For the variant TTQY, the enrichment ratio came to 2.02. As for ESFR, the enrichment ratio is no more than 0.25. Next, HKSL: no more than 0.25; PYGK: no more than 0.25.

As to KLMT, the enrichment ratio was no more than 0.25. The figure for SQSF is 7.01; for NKWM it is no more than 0.25; for LMGK it is no more than 0.25. Next, QQNG: no more than 0.25. Next, THAT: no more than 0.25. For the variant KKGA, the enrichment ratio was no more than 0.25. For the variant DVTN, the enrichment ratio is no more than 0.25. Regarding KQQF, the enrichment ratio is no more than 0.25.

As to TPTR, the enrichment ratio is no more than 0.25. The figure for VQSQ is no more than 0.25. The figure for PKLH is no more than 0.25; for VTHM it is no more than 0.25.

Turning to APPS, the enrichment ratio is no more than 0.25. In the case of LQVH, the enrichment ratio was no more than 0.25. As to PQWR, the enrichment ratio was no more than 0.25. The figure for KFKS is no more than 0.25; for NWDF it is no more than 0.25; for SMAK it is 10.7. Turning to FLWP, the enrichment ratio was no more than 0.25. Turning to EHCR, the enrichment ratio is no more than 0.25.

In the case of VKEP, the enrichment ratio is no more than 0.25. Take TVYV: the enrichment ratio is 0.466. The figure for ECQP is no more than 0.25; for KQLY it is no more than 0.25; for LRVA it is no more than 0.25. Take IRWH: the enrichment ratio is no more than 0.25.

On to LNLD, for which the enrichment ratio is no more than 0.25.

In the case of PRGV, the enrichment ratio was no more than 0.25. Next, TWAC: no more than 0.25; YKYF: no more than 0.25. Next, HHLH: no more than 0.25; FSVQ: 0.364.

Consider CRVL, for which the enrichment ratio was no more than 0.25. ASPW: the enrichment ratio is no more than 0.25. With SCAA, the enrichment ratio came out at 5.68.

On to MKVC, for which the enrichment ratio was no more than 0.25. Next, VHTV: no more than 0.25.

Take NIPQ: the enrichment ratio is no more than 0.25. The figure for HCLN is no more than 0.25; for WSND it is no more than 0.25. Next, IYDM: no more than 0.25; THDA: no more than 0.25. The figure for RSQR is no more than 0.25; for SQDN it is no more than 0.25; for ASRD it is no more than 0.25. As to IIAV, the enrichment ratio is no more than 0.25.

For the variant LNHV, the enrichment ratio is no more than 0.25.

Regarding GIRY, the enrichment ratio is no more than 0.25. The figure for QLGS is no more than 0.25; for QHAA it is no more than 0.25; for NALF it is no more than 0.25. Regarding PPFF, the enrichment ratio was no more than 0.25.

For the variant SHVR, the enrichment ratio is no more than 0.25. Take WIFP: the enrichment ratio was no more than 0.25.

In the case of ELKF, the enrichment ratio was no more than 0.25. The figure for MSCD is no more than 0.25; for HFCD it is no more than 0.25. Next, VVLI: no more than 0.25; IQMH: no more than 0.25. In the case of VRSI, the enrichment ratio is no more than 0.25. Next, FDHI: no more than 0.25. For LDCG, the enrichment ratio was no more than 0.25. On to VPVL, for which the enrichment ratio is no more than 0.25. Next, VTKA: no more than 0.25; MGYG: 5.96. Take SPGE: the enrichment ratio was no more than 0.25. Next, IMPR: no more than 0.25; LILV: no more than 0.25; LMSA: no more than 0.25.

For the variant KGMW, the enrichment ratio is no more than 0.25. Next, HENR: no more than 0.25; FWEG: no more than 0.25; KHAA: no more than 0.25. The figure for NNPR is no more than 0.25; for NWAK it is no more than 0.25. As for MKFT, the enrichment ratio was no more than 0.25. Turning to YLRG, the enrichment ratio is no more than 0.25. Next, RIPP: no more than 0.25; DTPI: no more than 0.25.

For the variant MALS, the enrichment ratio was 8.05. Next, WEGC: no more than 0.25; LVVF: no more than 0.25; WGPT: no more than 0.25. Next, LKER: no more than 0.25; HWWF: no more than 0.25.

For the variant MTDF, the enrichment ratio was no more than 0.25. The figure for EEIV is no more than 0.25; for RCFN it is no more than 0.25; for IANN it is no more than 0.25. In the case of FVYY, the enrichment ratio was no more than 0.25. The figure for AMTK is no more than 0.25; for VQIY it is no more than 0.25; for DQCY it is no more than 0.25. On to IYTH, for which the enrichment ratio was no more than 0.25. Next, TGLT: 13.5; FEMC: 10.8; KDVF: no more than 0.25.

With LCRF, the enrichment ratio was no more than 0.25. Consider FRWF, for which the enrichment ratio was no more than 0.25. The figure for VWFC is no more than 0.25. The figure for ANRD is no more than 0.25; for YTFL it is no more than 0.25; for HICM it is no more than 0.25. For the variant KCIR, the enrichment ratio was no more than 0.25. The figure for AYNI is no more than 0.25; for HKST it is no more than 0.25.

Turning to ITTP, the enrichment ratio was no more than 0.25. Next, ACRI: no more than 0.25; LMIY: no more than 0.25; VSCW: no more than 0.25.

As for LIMT, the enrichment ratio was no more than 0.25. The figure for NIAK is no more than 0.25; for HQTM it is 2.38; for RRAH it is no more than 0.25. TVVP: the enrichment ratio was no more than 0.25. For the variant PEWD, the enrichment ratio was no more than 0.25. The figure for HFTH is no more than 0.25; for FSWL it is no more than 0.25; for LCSS it is no more than 0.25.
